Results reported in PubChem BioAssay AID504832 (National Center for Advancing Translational Sciences (NCATS), 2011).
Hit rate of the full screen: of about 310,000 compounds, about 18,000 (5.8%) were called active. The inconclusive results got no clear call from the source; some entries with a clear call stand among them for comparison. The call rests on the fitted dose curve; in most records, active means well fitted inhibition curve with a large enough effect; inconclusive means small, poorly fitted or top-dose-only effect, or another doubt; inactive means no such curve, though single readings can be large or run the other way. Potencies of inconclusive entries are left out as doubtful fits.

assay: Primary qHTS for delayed death inhibitors of the malarial parasite plastid, 48 hour incubation; details: P. falciparum luciferase growth in erythrocytes; series mostly up to 28.7 µM
Excerpt: The goal of this screen is to discover new antimalarial compounds that act by inhibiting the development of the apicoplast in the malarial parasite Plasmodium falciparum. The biochemical processes that make this organelle essential for erythrocytic stage parasites are not well understood. However, antibiotics such as azithromycin and tetracycline, which target the apicoplast translational machinery, have a potent antimalarial effect.
We have developed a cell-based assay that measures parasite growth based on the expression of an integrated copy of a firefly luciferase reporter. To detect small molecules that cause this "delayed death" phenotype, erythrocytes infected with the luciferase-expressing parasites were incubated with compounds for either one or two generations, corresponding to 48 and 96 hours, respectively. Compounds that inhibit parasite growth in the second generation, but not the first, should be enriched in antimalarials that target the apicoplast. Growth inhibition is detected by a decrease in luciferase activity.
Assay Provider: David Fidock and Eric Ekland, Columbia University
Keywords: NIH Roadmap, MLPCN, MLI, MLSMR, qHTS, NCGC, qHTS, malaria, luciferase, viability
Four microliters of culture medium (RPMI 1640 with 0.5% w/v Albumax (GIBCO), 24 mM sodium bicarbonate and 10 ug/mL gentamycin) were dispensed by a Multi-drop Combi into white solid 1536-well plates (Grenier) and 23 nL compound was added by a pin tool. Four microliters of infected erythrocytes (2% hematocrit, 0.1% parasitemia final concentration) in culture medium were dispensed and the plates incubated for 48 hours at 37 C in 5% CO2. Two microliters of luciferase detection reagent was added and luminescence was detected by a ViewLux (PerkinElmer) reader.
Potency means the concentration at half of the fitted maximal effect; tags describe the fitted curve by direction and shape.

Structure (SMILES)	Potency
CCN1C(=O)[C@H]2[C@@H](c3ccc(C)cc3)N3C(=O)N(c4ccc(OC)cc4)C(=O)[C@@]3(Cc3ccccc3)[C@H]2C1=O	inconclusive [inhibitor, single point]
CCN(CC)CCCNC(=O)c1cc(Cl)c(NC(=O)C2=C(C)OCCS2)cc1OC	inconclusive [inhibitor, single point]
O=C(CCCCN1CCCCC1)c1ccc2c(c1)Cc1ccccc1-2	active: 5.22 µM
Cc1ccc(Cn2nnc3c(=O)[nH]c(C4CCCN(C(=O)c5ccco5)C4)nc32)cc1 (stereo not drawn)	inconclusive [inhibitor, single point]
O=C(Nc1cscc1S(=O)(=O)c1ccc(Cl)cc1)c1ccccc1Cl	inconclusive [inhibitor, single point]
Oc1c(Br)cc(Br)cc1C=Nc1ccc2c(c1)OCCO2	inactive
Cc1c(O)c2c3c(cccc3c1O)C(=O)N(c1ccccc1)C2=O	inconclusive [inhibitor, partial curve]
CCOC(=O)c1cn(CC(=O)Nc2ccc(CC)cc2)nn1	inconclusive [inhibitor, single point]
COc1cc(NC(=O)c2cnc(N)o2)cc(C(=O)Nc2cccc(C(F)(F)F)c2)c1	active: 10.4 µM
N#CC1=C(N)Oc2cc(O)ccc2C1c1ccc(Br)s1 (stereo not drawn)	inactive
COc1ccc(C(CNC(=O)c2ccc(S(=O)(=O)Nc3ccc(F)cc3)cc2)N(C)C)cc1 (stereo not drawn)	inconclusive [inhibitor, single point]
c1coc(-c2nnc3sc(Cc4cccs4)nn23)c1	inactive
O=C(NCCc1csc(-c2cccnc2)n1)c1ccccc1Br	inconclusive [inhibitor, partial curve]
CC(C)C[C@H](NC(=O)c1nc[nH]c1C(=O)N(C)Cc1ccccc1)C(=O)OC(C)(C)C	inconclusive [inhibitor, partial curve, poor fit]
CCOC(=O)C1(C(F)(F)F)N=C(c2cccnc2)OC(N2CCCCC2)=N1 (stereo not drawn)	inconclusive [inhibitor, partial curve, poor fit]
CN(C)c1cc[n+](CC(=O)Nc2ccc(Cl)c([N+](=O)[O-])c2)cc1	active: 1.17 µM
CC1(C)Cc2c(C#N)c(SCCC#N)nc(N3CCOCC3)c2CO1	inconclusive [inhibitor, single point]
N#CCC(=N)N1CCN(c2cccc(Cl)c2)CC1	inconclusive [inhibitor, single point]
CSc1nc(C)c(C(=O)C[n+]2ccc(C)cc2)cc1C#N	inconclusive [inhibitor, single point]
CCN(CC)S(=O)(=O)c1ccc(C(=O)NCc2ccc(C)cc2)cc1	inactive
CCCc1cc(=O)oc2c3c(cc(OCC(=O)N[C@@H](CSC)C(=O)O)c12)OC(C)(C)CC3	inconclusive [inhibitor, full curve, poor fit]
COc1ccc(C(C2C(=O)CC(C)(C)CC2=O)C2C(=O)CC(C)(C)CC2=O)cc1COCC(F)(F)F	inactive

Structure (SMILES)	Potency
CC(C)Cc1nc2oc3c(NCc4cccnc4)ncnc3c2c2c1CCC2	inconclusive [inhibitor, partial curve, poor fit]
CCCN(CCC)C(=O)C1CCN(c2cc(C)nc3c(-c4ccc(OC)c(OC)c4)c(C)nn23)CC1	inconclusive [inhibitor, full curve]
CC(C)C(NC(=O)Cc1ccccc1)C(=O)N1CCN(c2cccc(Cl)c2)CC1 (stereo not drawn)	inconclusive [inhibitor, partial curve]
C=CCNc1nc(NCc2ccccc2)c(C#N)c2c1CN(C)CC2	inconclusive [inhibitor, single point]
CCCNC(=O)CCn1cc(-c2ccc(OC)cc2)nc1CCN	inconclusive [inhibitor, single point]
Cc1ccc(C(=O)COC(=O)c2nc3nccc(C)n3n2)c(C)c1	inconclusive [inhibitor, single point]
CCN(CC(=O)NCc1cccs1)C(=O)CCC(=O)c1ccc(C)cc1	inconclusive [inhibitor, single point]
Cc1cc(C)cc(N(CC(=O)NCc2ccco2)S(=O)(=O)c2ccccc2)c1	inconclusive [inhibitor, partial curve]
O=C(NCCc1ccccc1)/C(=C\c1cccc([N+](=O)[O-])c1)NC(=O)c1ccco1	inconclusive [inhibitor, partial curve, poor fit]
COc1ccc(NC(=S)NCCN2CCOCC2)cc1	inactive
CC(=O)N(CCC(c1ccco1)C(C)C)Cc1ccc(OC(C)C)cc1 (stereo not drawn)	inconclusive [inhibitor, single point]
COc1ccc(NS(=O)(=O)c2cccc(C(=O)NCCCN3CCOCC3)c2)cc1	inconclusive [inhibitor, single point]
Cc1nnc(NC(=O)CCC(=O)NCc2ccco2)s1	inactive
CCC/C(=N\NC(=O)c1ccco1)c1ccc(Cl)s1	inactive
C1CCN(c2nc(N3CCCCC3)nc(N3CCNCC3)n2)CC1	inactive
COc1ccccc1N1CCN(C(=O)c2ccccc2SCC(=O)NCc2ccco2)CC1	inconclusive [inhibitor, single point]
COc1ccc(-n2c(SCC3OCCO3)nc3c(sc(=S)n3-c3ccccc3)c2=O)cc1OC	inactive
N#Cc1c(-c2ccccc2)nc(-c2cccnc2)[nH]c1=O	inactive
CC1=CC2=NC(=O)/C(=C\c3cccn3CCOc3cccc(C)c3)C(=N)N2O1	inconclusive [inhibitor, partial curve, poor fit]
COc1ccc(C(C)=O)cc1CSc1nnc(Nc2ccc(C)cc2)s1	inconclusive [inhibitor, single point]
CC(C)(C)c1ccc(OCC(=O)N/N=C/c2cc(Br)ccc2OC(=O)c2ccco2)cc1	active: 2.08 µM
